We go through 60 sequences from PMC6451091.

Settings in all cases: 20 mM HEPES pH 7.9, 100 mM NaCl, 1 mM DTT, 0.2 mg/mL BSA, 0.02% Triton X-100, 2% milk, 0.4 mg/mL salmon testes DNA; 1 h; temperature not stated; high values mean tight binding; double strand, one strand shown; sequences stand for … in GCCTAGCAC…GTGCTAGGTCTTGATTCGCTTGACGCTGCTG
Assay [1] has as its target PU.1 (IVT) (UniProt P17947). The assay can be described thus: protein-binding microarray (PBM).
The target in assay [2] is PU.1 (endogenous, THP-1 nuclear extract) (UniProt P17947). The assay can be described thus: nuclear extract protein-binding microarray (nextPBM).
The target in assay [3] is T1, FLI1 (endogenous, THP-1 nuclear extract) (UniProt Q01543).
T1 sequence: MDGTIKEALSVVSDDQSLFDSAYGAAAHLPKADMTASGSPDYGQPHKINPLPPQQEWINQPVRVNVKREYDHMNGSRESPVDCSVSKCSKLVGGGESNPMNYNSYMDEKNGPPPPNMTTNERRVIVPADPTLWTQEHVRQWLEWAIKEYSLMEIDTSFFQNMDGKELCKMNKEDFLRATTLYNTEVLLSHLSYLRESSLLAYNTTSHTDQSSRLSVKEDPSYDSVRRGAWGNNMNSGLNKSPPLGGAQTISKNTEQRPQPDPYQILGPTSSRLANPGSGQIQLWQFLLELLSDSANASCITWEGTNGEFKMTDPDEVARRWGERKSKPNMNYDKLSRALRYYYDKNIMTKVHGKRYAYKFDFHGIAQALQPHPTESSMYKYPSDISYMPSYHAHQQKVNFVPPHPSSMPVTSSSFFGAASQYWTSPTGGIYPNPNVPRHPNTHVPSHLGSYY
The assay is described as above.

Some of the results follow. For part of these data: At the low end of the ranking the order means little. For part of these data: The protein was read in a cell extract, so binding may be indirect.

Consider AAAATGGGGAAGTGACTCTC, for which the binding signal was found to be 7.73 z-score in assay [1], 7.21 z-score in assay [2] and 3.05 z-score in assay [3].
For AAAAAGAGGAACTCGAATTA the same measures were 7.11 z-score, 7.24 z-score and 2.39 z-score.
As to CGAAAAGGGAAATACTGTGA, the figures for the binding signal in assay [1], in assay [2] and in assay [3] were 2.65 z-score, 2.26 z-score and 1.55 z-score, respectively.
For AGGAAGGGGAAGTGGCTACC the same measures were 5.74 z-score, 6.39 z-score and 3.17 z-score.
For TGAAGAGGGAAGTGGGCAAG the same measures were 3.11 z-score, 3.45 z-score and 1.69 z-score.
Take GAAAAGGGGAAGTGTGTGTT: the binding signal worked out at 7.89 z-score in assay [1], 7.42 z-score in assay [2] and 3.36 z-score in assay [3].
ACTTTAAGGAAGTGAGATTT: the binding signal is 4.66 z-score in assay [1], 5.06 z-score in assay [2] and 1.84 z-score in assay [3].
GAAGAGGGGAAGTGGGACCA: the binding signal in assay [1] was found to be 3.46 z-score; in assay [2] it was 3.57 z-score; in assay [3] it was 1.92 z-score.
For GGAAAGAGGAAATGGGGAAT, the binding signal in assay [1] turned out to be 4.72 z-score; in assay [2], 5.01 z-score; in assay [3], 2.98 z-score.
The like results for GAAAAGAGGAAGTAGGATAA were, in that order, 8.46 z-score, 7.27 z-score and 4.13 z-score.
For AAATTAAGGAAGTGCCTCTT the same measures were 6.87 z-score, 6.59 z-score and 2.79 z-score.
With GGAAAGAGGAAGTGGCAAGA, the binding signal was found to be 7.75 z-score in assay [1], 7.09 z-score in assay [2] and 4.11 z-score in assay [3].
Consider GATAAGAGGAAGTCGTCTGT, for which the binding signal in assay [1] came out at 5.99 z-score; in assay [2], 6.57 z-score; in assay [3], 3.13 z-score.
For the sequence CGAAGGGGGAAGTGCTAAAC, the binding signal in assay [1] was 5.21 z-score; in assay [2], 4.82 z-score; in assay [3], 2.32 z-score.
The like results for CATTTGAGGAAGTGGGAACA were, in that order, 6.05 z-score, 6.37 z-score and 2.44 z-score.
For the sequence GGGAGGAGGAAGTGGGGAGT, the binding signal in assay [1] came to 4.26 z-score; in assay [2], 4.47 z-score; in assay [3] it was 2.92 z-score.
Turning to AGAAACAGGAAGTCCCAAAC, the binding signal in assay [1] stood at 7.1 z-score; in assay [2], 6.99 z-score; in assay [3], 4.81 z-score.
Regarding AAAATGAGGAACTGTGAAAT, the binding signal in assay [1] turned out to be 6.41 z-score; in assay [2], 6.83 z-score; in assay [3] it was 1.62 z-score.
The like results for CAAATGAGGAACTAATGCGG were, in that order, 6.94 z-score, 6.66 z-score and 3.32 z-score.
With CGAAAGAGGAAGTAGAAACA, the binding signal in assay [1] worked out at 7.76 z-score; in assay [2], 7.42 z-score; in assay [3] it was 3.59 z-score.
For GAAAAGGGGAAGTGCTGGGG the same measures were 7.77 z-score, 7.22 z-score and 3.85 z-score.
As to GGAAAAAGGAAGTGCTTGCT, the figures for the binding signal in assay [1], in assay [2] and in assay [3] were 5.77 z-score, 6.07 z-score and 2.85 z-score, respectively.
With GATAACAGGAAGTCCTCTGT, the binding signal in assay [1] worked out at 4.94 z-score; in assay [2], 5.45 z-score; in assay [3], 4.66 z-score.
As for TGGGAGGGGAAGTGTGAGGC, the binding signal was determined as 3.28 z-score in assay [1], 2.97 z-score in assay [2] and 1.77 z-score in assay [3].
GAGAAGGGGAAATACTGTGC: the binding signal in assay [1] came out at 2.6 z-score; in assay [2] it was 2.11 z-score; in assay [3], 1.66 z-score.
For GAGAAGAGGAAGTGCTGGGT, the values for the binding signal in assay [1], in assay [2] and in assay [3] were 6.5 z-score, 6.69 z-score and 3.26 z-score, respectively.
Consider CAAATAGGGAAGTGGACTCA, for which the values for the binding signal in assay [1], in assay [2] and in assay [3] were 6.15 z-score, 6.72 z-score and 2.43 z-score, respectively.
Regarding GAAAACAGCAAGTCCCATAG, the values for the binding signal in assay [1], in assay [2] and in assay [3] were 0.0577 z-score, -0.0992 z-score and -0.329 z-score, respectively.
In the case of TTAAACAGGAAGTAGTAACC, the values for the binding signal in assay [1], in assay [2] and in assay [3] were 6.11 z-score, 6.59 z-score and 5.44 z-score, respectively.
For TGAAAGGGGAAGTGCCACGT the same measures were 6.96 z-score, 7.01 z-score and 3.4 z-score.
For GTTGAGAGGAAGTGAAGCTT the same measures were 3.94 z-score, 3.9 z-score and 2.83 z-score.
Regarding TCAGGAGGGAAGTGAAGAAA, the figures for the binding signal in assay [1], in assay [2] and in assay [3] were 2.65 z-score, 2.5 z-score and 1.57 z-score, respectively.
For AGAAGGAGGAAGTGACCTGC, the results for the binding signal in assay [1], in assay [2] and in assay [3] were 5.9 z-score, 6.45 z-score and 2.93 z-score, respectively.
TATTAGAGGAAGTGGCAGAG: the values for the binding signal in assay [1], in assay [2] and in assay [3] were 4.62 z-score, 5.39 z-score and 2.77 z-score, respectively.
The like results for GAAAAGAGGAAGTGTAACCA were, in that order, 8.52 z-score, 7.38 z-score and 4.1 z-score.
The like results for AAAATGAGGAAGTTGGATGG were, in that order, 8.35 z-score, 7.3 z-score and 3.82 z-score.
GAAAAGAGGAAGTCACATTA: the results for the binding signal in assay [1], in assay [2] and in assay [3] were 8.62 z-score, 7.56 z-score and 4.74 z-score, respectively.
For AGGAAAAGGAAGTGGCAGCA the same measures were 3.84 z-score, 3.5 z-score and 2.69 z-score.
For TGGAAGAGGAAGTGGTGGCC, the results for the binding signal in assay [1], in assay [2] and in assay [3] were 5.89 z-score, 6.37 z-score and 3.09 z-score, respectively.
Take GAAAAAAGGAAGTGTGTTGT: the binding signal came out at 6.01 z-score in assay [1], 5.97 z-score in assay [2] and 2.78 z-score in assay [3].
The like results for GATAAGAGGAAGTGACACAA were, in that order, 6.19 z-score, 6.61 z-score and 2.94 z-score.
As to CAAAAGAGGAAGTGGTATCA, the binding signal was 8.24 z-score in assay [1], 7.39 z-score in assay [2] and 4.31 z-score in assay [3].
Regarding GCAGTAGGGAAGTGGAGCAT, the binding signal was determined as 3.12 z-score in assay [1], 2.76 z-score in assay [2] and 1.29 z-score in assay [3].
Turning to GAAAAAAGGAAGTTGCACAG, the binding signal worked out at 6.42 z-score in assay [1], 6.47 z-score in assay [2] and 3.11 z-score in assay [3].
GAAAAGAGGAAGTGGAATTT: the binding signal came out at 8.92 z-score in assay [1], 7.48 z-score in assay [2] and 4.93 z-score in assay [3].
Take GCTAAGAGGAAGTCCTCTGT: the binding signal in assay [1] is 5.07 z-score; in assay [2], 5.28 z-score; in assay [3], 2.54 z-score.
Consider AAAAGGAGGAAGTACTGTGA, for which the values for the binding signal in assay [1], in assay [2] and in assay [3] were 7.12 z-score, 7.06 z-score and 3.39 z-score, respectively.
In the case of TTGAGGAGGAAGTAGAAAGG, the binding signal was found to be 3.94 z-score in assay [1], 4.7 z-score in assay [2] and 2.35 z-score in assay [3].
For the sequence CAAAAGCGGAAGTGGTGCCT, the binding signal worked out at 8.56 z-score in assay [1], 7.27 z-score in assay [2] and 5.35 z-score in assay [3].
AATAAAAGGAACTGGCTAGA: the binding signal worked out at 2.53 z-score in assay [1], 2.19 z-score in assay [2] and 0.659 z-score in assay [3].
The like results for CCAATGAGGAAGTGCATTCA were, in that order, 6.15 z-score, 6.44 z-score and 2.7 z-score.
Regarding ATTTCTGGGAAGTACTGTGA, the binding signal in assay [1] came to 2.12 z-score; in assay [2], 1.81 z-score; in assay [3], 0.598 z-score.
The like results for TAAAAAAGGAACTGCAATTA were, in that order, 3.75 z-score, 3.27 z-score and 1.1 z-score.
For AAGAAGAGGAAGTGGAGAGG, the binding signal stood at 5.58 z-score in assay [1], 6.36 z-score in assay [2] and 3.21 z-score in assay [3].
For GATAAGAGGAAGTCCTCTTT, the values for the binding signal in assay [1], in assay [2] and in assay [3] were 6.29 z-score, 6.56 z-score and 2.98 z-score, respectively.
As for AGAAAGAGGAACTGGTTTGG, the results for the binding signal in assay [1], in assay [2] and in assay [3] were 6.71 z-score, 6.85 z-score and 3.03 z-score, respectively.
AGAAAGGGGAAGTCCAGACT: the binding signal came to 7.42 z-score in assay [1], 6.93 z-score in assay [2] and 3.14 z-score in assay [3].
Consider ACAAAAAAGAACTGTGCCCC, for which the binding signal in assay [1] is 0.00246 z-score; in assay [2], 0.199 z-score; in assay [3], -0.394 z-score.
CGATTGGGGAAGTGCCCGCA: the binding signal stood at 4.54 z-score in assay [1], 5.59 z-score in assay [2] and 1.83 z-score in assay [3].
For GAGAAGAGGAAGTAGAACAA the same measures were 6.62 z-score, 6.81 z-score and 3.28 z-score.
